Among all 310,000 compounds or so, about 14,000 (4.5%) showed an effect of 50% or more. The effect is printed as a negative number. This is one part of the list.
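Note: peak tail current of the secondary pulse compared with the same well before compound.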

This assay deals with human ether-à-go-go-related gene (hERG) potassium channel (human, UniProt Q12809). As to the kind of experiment: primary screen, population patch clamp on CHO cells stably expressing hERG.
Sequence of human ether-à-go-go-related gene (hERG) potassium channel (Q12809 whole entry, looked up): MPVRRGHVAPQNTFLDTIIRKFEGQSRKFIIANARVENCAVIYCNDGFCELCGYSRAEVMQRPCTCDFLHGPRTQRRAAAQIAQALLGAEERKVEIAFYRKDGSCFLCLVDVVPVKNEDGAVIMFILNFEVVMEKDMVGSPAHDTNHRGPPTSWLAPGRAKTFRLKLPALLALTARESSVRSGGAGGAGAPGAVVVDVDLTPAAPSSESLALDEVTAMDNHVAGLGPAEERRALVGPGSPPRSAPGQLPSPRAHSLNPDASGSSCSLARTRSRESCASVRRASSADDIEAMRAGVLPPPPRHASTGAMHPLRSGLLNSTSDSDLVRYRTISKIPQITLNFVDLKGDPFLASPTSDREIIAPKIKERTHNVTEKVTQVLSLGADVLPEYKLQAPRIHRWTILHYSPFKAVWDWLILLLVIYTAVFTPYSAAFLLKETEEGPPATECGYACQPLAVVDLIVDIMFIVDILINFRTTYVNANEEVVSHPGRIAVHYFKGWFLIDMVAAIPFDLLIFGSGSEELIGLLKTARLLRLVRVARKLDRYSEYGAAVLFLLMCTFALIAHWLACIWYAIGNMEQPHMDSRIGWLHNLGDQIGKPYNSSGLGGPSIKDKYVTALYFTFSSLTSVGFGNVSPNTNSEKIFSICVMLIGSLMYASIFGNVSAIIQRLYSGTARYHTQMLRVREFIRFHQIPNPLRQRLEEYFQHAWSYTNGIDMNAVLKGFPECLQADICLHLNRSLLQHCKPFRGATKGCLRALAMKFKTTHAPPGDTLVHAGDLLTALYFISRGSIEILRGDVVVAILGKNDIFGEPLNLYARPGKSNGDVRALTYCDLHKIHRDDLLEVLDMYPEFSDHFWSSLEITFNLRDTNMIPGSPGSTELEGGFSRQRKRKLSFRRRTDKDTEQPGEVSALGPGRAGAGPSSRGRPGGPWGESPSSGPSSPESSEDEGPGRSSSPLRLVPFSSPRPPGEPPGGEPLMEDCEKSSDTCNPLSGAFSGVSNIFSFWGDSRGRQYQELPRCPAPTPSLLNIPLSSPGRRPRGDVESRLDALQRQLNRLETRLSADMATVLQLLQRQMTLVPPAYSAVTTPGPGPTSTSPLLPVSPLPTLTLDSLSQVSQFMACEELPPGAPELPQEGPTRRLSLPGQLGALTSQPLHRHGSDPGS
For `O=C(OCC(=O)N1CCc2ccccc2C1)c1cccnc1Cl`, the “hERG current change (%, negative = inhibition) at 10uM” value is -0.321%.

Turning to `COc1ccc(NS(=O)(=O)c2cc(NC(=O)c3nn(C)c(=O)c4ccccc34)ccc2OC)cc1`, the “hERG current change (%, negative = inhibition) at 10uM” value was found to be 12.2%. As to `CCCCCc1cc(=O)oc2c(C(CCN3CCCC(C)C3)c3ccc(N(C)C)cc3)c(OC)cc(OC)c12` (stereo not drawn), the “hERG current change (%, negative = inhibition) at 10uM” value came to 6.65%. Consider `CC(C)NC(=O)NC(=O)COC(=O)c1ccccc1Oc1ccccc1`, for which the “hERG current change (%, negative = inhibition) at 10uM” value was -8.48%.

Consider `O=C1Cc2ccccc2Sc2ccc(O)cc21`, for which the “hERG current change (%, negative = inhibition) at 10uM” value is 16.4%.

Take `CCN1CCN(C(c2cccs2)C(C)NC(=O)C(=O)N2CCCCC2)CC1` (stereo not drawn): the “hERG current change (%, negative = inhibition) at 10uM” value was found to be 11.3%.

Turning to `Cc1ccc(S(=O)(=O)N(C)C)cc1NC(=O)C1CCCC1`, the “hERG current change (%, negative = inhibition) at 10uM” value was determined as 2.05%. The value for `Cc1ccc(C(C(=O)NC2CCCC2)N(Cc2ccc3c(c2)OCO3)C(=O)Cc2cccs2)cc1` (stereo not drawn) was -4.63%; that for `CC(C)NC(=O)CCNC(=O)c1ccc(F)cc1` was 3.82%. On to `O=c1c2ccccc2[nH]c(=S)n1CCCn1ccnc1`, for which the “hERG current change (%, negative = inhibition) at 10uM” value is on record as -0.744%. The result for `CC(C)=CCN1CCN(C/C(Cl)=C/c2ccccc2)CC1CCO` (stereo not drawn) reads -26.9%; that for `CC1CCCN(C(=O)c2ccc([N+](=O)[O-])o2)C1` (stereo not drawn), 21.6%. Turning to `CCOc1ccccc1N1CCN(Cc2ccc(Br)s2)CC1`, the “hERG current change (%, negative = inhibition) at 10uM” value is -33.8%. With `O=C(O)C1C2CCC(O2)C1C(=O)Nc1ccc(F)c(F)c1` (stereo not drawn), the “hERG current change (%, negative = inhibition) at 10uM” value was found to be 26.5%. On to `Cc1ccc(-n2nc3c(c2NC(=O)c2ccc(Br)o2)CSC3)c(C)c1`, for which the “hERG current change (%, negative = inhibition) at 10uM” value is listed as -23.4%. In the case of `CCOCCCn1c(=NC(=O)c2cccnc2)c(C(=O)OCC)cc2c(=O)n3ccccc3nc21`, the “hERG current change (%, negative = inhibition) at 10uM” value is on record as -70.1%. As for `CC(=O)Nc1ccc(Nc2cc(N3CCOCC3)c3nonc3c2[N+](=O)[O-])cc1`, the “hERG current change (%, negative = inhibition) at 10uM” value is reported as -4.33%. On to `O=C(CCCCCN1C(=O)c2cccc3cccc(c23)C1=O)NC1CCS(=O)(=O)C1` (stereo not drawn), for which the “hERG current change (%, negative = inhibition) at 10uM” value is -7.35%. Turning to `NNC(=O)CSc1nc(-c2ccccc2)nc2c1CCCC2`, the “hERG current change (%, negative = inhibition) at 10uM” value is reported as -8.07%.

Take `CCn1cc(C(=O)O)c(=O)c2cc3c(cc21)OCO3`: the “hERG current change (%, negative = inhibition) at 10uM” value is reported as 20.5%.

On to `Cc1cc(NS(=O)(=O)c2ccc(NS(=O)(=O)c3ccc(CC(C)C)cc3)cc2)nc(C)n1`, for which the “hERG current change (%, negative = inhibition) at 10uM” value worked out at 28.8%. Turning to `O=C(NCCNC(=O)c1ccccc1[N+](=O)[O-])c1ccccc1[N+](=O)[O-]`, the “hERG current change (%, negative = inhibition) at 10uM” value is recorded as 24.7%.

Take `O=C(/C=C/c1ccccc1)NC(=O)c1ccccc1O`: the “hERG current change (%, negative = inhibition) at 10uM” value was found to be 9.95%. For the compound `CCOc1cc(C2NC(=O)NC(c3ccccc3)=C2C(=O)c2ccccc2)c(Br)cc1OCC(=O)O` (stereo not drawn), the “hERG current change (%, negative = inhibition) at 10uM” value came out at 7.86%.

The values above are taken from paper PMC4336329 (PLoS ONE, 2015).
